Test results as given in PubChem BioAssay.
The shares of active, inactive and inconclusive entries below differ from those in the screen. Active and inactive are the calls of the source.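 The calls were made as follows: active = cell viability at or below a set limit in both duplicate runs, the limit being the all-compound median minus 4 SD (cut at about 23% in these data, passing the limit was not always enough); inconclusive = no clear call, values can overlap the other calls; inactive = the rest.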

Experiment: viability of HCT116 without oncogenic beta-catenin – human colon tumor cells, pilot screen (AID 823);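 also: 0% = wells killed by 20 µM Hyamine and 100% = untreated DMSO cell wells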
Settings: HCT116 beta-catenin knockout viability, CellTiter-Glo, 60 h; at 10 µM; stronger effect = lower value
With CCNc1nc2c(c(=O)[nH]c(=O)n2C)n1Cc1ccc(F)cc1 the viability was inactive: 99%. For O=C(O)CNS(=O)(=O)c1ccc(F)cc1, the viability was inconclusive: 107%. With O=C(O)c1ccc(N2C(=O)CC(Cc3ccccc3)C2=O)cc1 (stereo unspecified) the viability was inconclusive: 105%. In the case of CCn1cc(C(=O)N2CCn3c(nc4ccccc43)C2)c(=O)c2ccc(C)nc21, the viability is reported as inactive: 104%. For CCN(CC)c1cccc(OC2=NS(=O)(=O)c3ccccc32)c1, the viability was inactive: 99.1%. With Cc1cc(C(=O)NC(C)c2ccncc2)no1 (stereo unspecified) the viability was inconclusive: 99.2%. For COc1ccc(C2=[N+]([O-])C(C)(C)N(O)C2(C)C)cc1, the viability was inconclusive: 100%. In the case of CCCOC(=O)c1ccc(OCC(O)Cn2c(C)nc3ccccc32)cc1 (stereo unspecified), the viability is reported as inconclusive: 41.9%. With O=C(Nc1ccccc1C1CC1)c1cccs1 the viability was inactive: 95%. In the case of O=C1N=C(c2ccccc2)C(c2ccccc2)N1 (stereo unspecified), the viability is reported as inconclusive: 94.6%. With O=C(Nc1cccnc1)c1ccc(CN2CCc3ccccc3C2)cc1 the viability was inconclusive: 89.1%. In the case of c1cncc(CNc2nc(N3CCOCC3)nc(N3CCOCC3)n2)c1, the viability is reported as inconclusive: 83.1%. In the case of CNC(=O)CN1C(=O)CSc2nc(C)cc(C)c21, the viability is reported as inactive: 99.9%. For Cc1ccc(N(CC(=O)Nc2ccc(S(=O)(=O)N3CCOCC3)cc2)S(C)(=O)=O)cc1C, the viability was inconclusive: 101%. In the case of O=C(Cc1c(C(=O)O)[nH]c2ccccc12)Nc1ccc2c(c1)OCO2, the viability is reported as inconclusive: 93.5%. With CC1(C)Cc2c(sc3c2c(=N)n(Cc2ccco2)c(=O)n3Cc2ccc(Cl)cc2)CO1 the viability was inactive: 79.9%.
